Data published in PMC9226319, “Peripherally restricted transthyretin-based delivery system for probes and therapeutics avoiding opioid-related side effects” (Nature Communications, 2022).
Values joined by “and” are separate entries in the source; they are usually repeats but may differ in a detail not shown here. Equal entries are not always repeated. Where two headings read alike, the source gives them in different places.

Assays:
Hep3B cell line = details: for % Cell viability: Hep3B cell line MTT assay, replicates
in vitro = details: human, % Cell viability, Hep3B cell line MTT assay, replicates

Structure (SMILES)	% Cell viability (Hep3B cell line; 10 μM)	% Cell viability (Hep3B cell line; 100 μM)	viability at 72 h, 10 µM (in vitro; 10 μM)	viability at 72 h, 100 µM (in vitro; 100 μM)	% Cell viability (Hep3B cell line; 1 μM)	cytotoxicity, Hep3B (Hep3B cell line; 10 and 100 µM, 72 h, MTT)
C=CCN1CC[C@]23c4c5ccc(O)c4O[C@H]2[C@@H](OCc2cn(CCNCCCCCCOc4cc(OCCCc6c(C)n[nH]c6C)cc(C(=O)O)c4)nn2)CC[C@@]3(O)[C@H]1C5 [AG10-L2-Nal]	103%	109% and 106%	107%	104%		
COc1cccc2c1C(=O)c1c(O)c3c(c(O)c1C2=O)C[C@@](O)(C(=O)CO)C[C@@H]3O[C@H]1C[C@H](N)[C@H](O)[C@H](C)O1 [DOX]					64% and 62%	
C=CCN1CC[C@]23c4c5ccc(O)c4O[C@H]2[C@@H](OCCOCCOCCOCCOCCOCCOCCOC)CC[C@@]3(O)[C@H]1C5 [Naloxegol, reference compound]	100%					no cytotoxicity
